# Test results from the supplement of paper PMC8728848.
# Some of the results follow.
# B1: PX9961J-bvu-499-24-499 (Bacteroides vulgatus) (protein)
# chain: LNTDPSTAVPSDDAIKNIDDAQVALNGIYRLASAHSYYGDNYLYYADCRGEDVQARINKGAGRRVSPYYFFDVTADDNFNITLVWNQPYKVIHQANSLIEKLDAGNAGNARPEEVARIKSEALAMRGLALFDLTRLFGMPYTLDNGASLGVPIEIQTTLEDHAPERNTVAQCYEQVLKDLNDALGGLTKEKHDAYMNYWSVKALLSRVYLYMNDNENALKCAEEVINDNGGIYRLFTHDEYPSVWGKDFNSESLFEFYFTMSEPSGGSGGEGAPMVYADNVKDWNNLILTKAYLDLLNEDPEDVRHVFPHLPENAVADTLPVAAKGQPKYLIKYPGKSGSVTDAVSTVNPQDNDLCILRLSEVYLNAAEAAFKIGNTEKALTYLNAIVTRANPAKSVTSADLSLERILKERRKELVGEGHAFFDYMRNGKSVDRSGGWHLTMPEDARVIAPSDPRVALPIPQTEIDANPNIVQNPR
# Assays:
# Experiment in all cases: glycan array binding signal (z-score within array); higher = stronger binding
# Conditions in all cases: glycan notation: IUPAC condensed, linker removed
# [1] = target: Gal3S(b1-4)Glc
# Outline: (§1)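 The binding signal is a Z-score computed within each array. Data were drawn from 3228 arrays in the Consortium for Functional Glycomics database, restricted to those with a known protein sequence. Scores were averaged over arrays of the same protein sequence at different concentrations or buffers, and over linkers, and negative values can be taken as non-binding.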
# [2] = target: Gal3S(b1-4)Glc6S
# Outline: as §1
# [3] = target: Gal3S(b1-4)GlcNAc
# Outline: as §1
# [4] = target: Gal3S(b1-4)[Fuc(a1-3)]Glc6S
# Outline: as §1
# [5] = target: Gal3S(b1-4)[Fuc(a1-3)]GlcNAc
# Outline: as §1
# [6] = target: Gal3S(b1-4)[Fuc(a1-3)]GlcNAc6S
# Outline: as §1
# [7] = target: Gal3S4S(b1-4)GlcNAc
# Outline: as §1
# [8] = target: Gal3S6S(b1-4)GlcNAc
# Outline: as §1
# [9] = target: Gal3S6S(b1-4)GlcNAc6S
# Outline: as §1
# [10] = target: Gal4S(b1-4)GlcNAc
# Outline: as §1
# [11] = target: Gal4S6S(b1-4)GlcNAc
# Outline: as §1
# [12] = target: Gal6P(b1-4)GlcNAc
# Outline: as §1
# [13] = target: Gal6S(b1-3)GlcNAc
# Outline: as §1
# [14] = target: Gal6S(b1-3)GlcNAc6S
# Outline: as §1
# [15] = target: Gal6S(b1-4)Glc
# Outline: as §1
# [16] = target: Gal6S(b1-4)Glc6S
# Outline: as §1
# [17] = target: Gal6S(b1-4)GlcNAc
# Outline: as §1
# [18] = target: Gal6S(b1-4)GlcNAc6S
# Outline: as §1
# [19] = target: GalNAc(a1-3)Gal
# Outline: as §1
# [20] = target: GalNAc(a1-3)GalNAc
# Outline: as §1
# [21] = target: GalNAc(a1-3)GalNAc(b1-3)Gal(a1-4)Gal(b1-4)Glc
# Outline: as §1
# [22] = target: GalNAc(a1-3)GalNAc(b1-3)Gal(a1-4)Gal(b1-4)GlcNAc
# Outline: as §1
# [23] = target: GalNAc(b1-3)Gal
# Outline: as §1
# [24] = target: GalNAc(b1-3)Gal(a1-4)Gal(b1-4)GlcNAc
# Outline: as §1
# [25] = target: GalNAc(b1-3)Gal(a1-4)Gal(b1-4)GlcNAc(b1-3)Gal(b1-4)Glc
# Outline: as §1
# [26] = target: GalNAc(b1-3)Gal(a1-6)Gal(b1-4)Glc
# Outline: as §1
# [27] = target: GalNAc(b1-3)GalNAc
# Outline: as §1
# [28] = target: GalNAc(b1-3)GlcNAc
# Outline: as §1
# [29] = target: GalNAc(b1-4)Gal(b1-4)Glc
# Outline: as §1
# [30] = target: GalNAc(b1-4)GlcNAc
# Outline: as §1
# [31] = target: GalNAc(b1-4)GlcNAc(b1-2)Man
# Outline: as §1
# [32] = target: GalNAc(b1-4)GlcNAc(b1-2)Man(a1-3)[GalNAc(b1-4)GlcNAc(b1-2)Man(a1-6)]Man(b1-4)GlcNAc(b1-4)GlcNAc
# Outline: as §1
# [33] = target: GalNAc(b1-4)GlcNAc(b1-3)GalNAc(b1-4)GlcNAc
# Outline: as §1
# [34] = target: GalNAc(b1-4)GlcNAc6S
# Outline: as §1
# [35] = target: GalNAc(b1-6)GalNAc
# Outline: as §1
# [36] = target: GalNAc3S(b1-4)GlcNAc
# Outline: as §1
# [37] = target: GalNAc3S(b1-4)GlcNAc3S
# Outline: as §1
# [38] = target: GalNAc3S(b1-4)[Fuc(a1-3)]GlcNAc
# Outline: as §1
# [39] = target: GalNAc4S6S(b1-4)GlcNAc
# Outline: as §1
# [40] = target: GalNAc6S(b1-4)GlcNAc
# Outline: as §1
# [41] = target: Glc(a1-4)Glc
# Outline: as §1
# [42] = target: Glc(a1-4)Glc(a1-4)Glc(a1-4)Glc
# Outline: as §1
# [43] = target: Glc(a1-6)Glc(a1-6)Glc
# Outline: as §1
# [44] = target: Glc(a1-6)Glc(a1-6)Glc(a1-6)Glc
# Outline: as §1
# [45] = target: Glc(b1-4)Glc
# Outline: as §1
# [46] = target: Glc(b1-6)Glc
# Outline: as §1
# [47] = target: GlcA(b1-3)Gal
# Outline: as §1
# [48] = target: GlcA(b1-3)GlcNAc
# Outline: as §1
# [49] = target: GlcA(b1-6)Gal
# Outline: as §1
# [50] = target: GlcA3S(b1-3)Gal(b1-4)GlcNAc(b1-2)Man
# Outline: as §1
# [51] = target: GlcA3S(b1-3)Gal(b1-4)GlcNAc(b1-3)Gal(b1-4)Glc
# Outline: as §1
# [52] = target: GlcNAc(a1-3)Gal(b1-4)GlcNAc
# Outline: as §1
# [53] = target: GlcNAc(a1-4)Gal(b1-3)GlcNAc
# Outline: as §1
# [54] = target: GlcNAc(a1-4)Gal(b1-4)GalNAc
# Outline: as §1
# [55] = target: GlcNAc(a1-4)Gal(b1-4)GlcNAc
# Outline: as §1
# [56] = target: GlcNAc(a1-4)Gal(b1-4)GlcNAc(b1-3)Gal(b1-4)Glc
# Outline: as §1
# [57] = target: GlcNAc(a1-4)Gal(b1-4)GlcNAc(b1-3)Gal(b1-4)GlcNAc
# Outline: as §1
# [58] = target: GlcNAc(a1-4)Gal(b1-4)GlcNAc(b1-3)Gal(b1-4)GlcNAc(b1-3)Gal(b1-4)GlcNAc
# Outline: as §1
# [59] = target: GlcNAc(a1-4)Gal(b1-4)GlcNAc(b1-3)Gal(b1-4)[Fuc(a1-3)]GlcNAc(b1-3)Gal(b1-4)[Fuc(a1-3)]GlcNAc
# Outline: as §1
# [60] = target: GlcNAc(a1-6)Gal(b1-4)GlcNAc
# Outline: as §1
# [61] = target: GlcNAc(b1-2)Gal(b1-3)GalNAc
# Outline: as §1
# [62] = target: GlcNAc(b1-2)Man(a1-3)[GlcNAc(b1-2)Man(a1-6)]Man(b1-4)GlcNAc(b1-4)GlcNAc
# Outline: as §1
# [63] = target: GlcNAc(b1-2)Man(a1-3)[GlcNAc(b1-2)Man(a1-6)]Man(b1-4)GlcNAc(b1-4)[Fuc(a1-6)]GlcNAc
# Outline: as §1
# [64] = target: GlcNAc(b1-2)Man(a1-3)[GlcNAc(b1-4)][GlcNAc(b1-2)Man(a1-6)]Man(b1-4)GlcNAc(b1-4)GlcNAc
# Outline: as §1
# [65] = target: GlcNAc(b1-2)Man(a1-3)[GlcNAc(b1-4)][GlcNAc(b1-2)Man(a1-6)]Man(b1-4)GlcNAc(b1-4)[Fuc(a1-6)]GlcNAc
# Outline: as §1
# [66] = target: GlcNAc(b1-2)[GlcNAc(b1-4)]Man(a1-3)[GlcNAc(b1-2)Man(a1-6)]Man(b1-4)GlcNAc(b1-4)GlcNAc
# Outline: as §1
# [67] = target: GlcNAc(b1-2)[GlcNAc(b1-4)]Man(a1-3)[GlcNAc(b1-4)][GlcNAc(b1-2)Man(a1-6)]Man(b1-4)GlcNAc(b1-4)GlcNAc
# Outline: as §1
# [68] = target: GlcNAc(b1-2)[GlcNAc(b1-4)]Man(a1-3)[GlcNAc(b1-4)][GlcNAc(b1-2)[GlcNAc(b1-6)]Man(a1-6)]Man(b1-4)GlcNAc(b1-4)GlcNAc
# Outline: as §1
# [69] = target: GlcNAc(b1-2)[GlcNAc(b1-4)]Man(a1-3)[GlcNAc(b1-4)][GlcNAc(b1-2)[GlcNAc(b1-6)]Man(a1-6)]Man(b1-4)GlcNAc(b1-4)[Fuc(a1-6)]GlcNAc
# Outline: as §1
# [70] = target: GlcNAc(b1-2)[GlcNAc(b1-6)]Man(a1-6)[GlcNAc(b1-2)Man(a1-3)]Man(b1-4)GlcNAc(b1-4)GlcNAc
# Outline: as §1
# [71] = target: GlcNAc(b1-2)[GlcNAc(b1-6)]Man(a1-6)[GlcNAc(b1-2)Man(a1-3)]Man(b1-4)GlcNAc(b1-4)[Fuc(a1-6)]GlcNAc
# Outline: as §1
# [72] = target: GlcNAc(b1-2)[GlcNAc(b1-6)]Man(a1-6)[GlcNAc(b1-4)][GlcNAc(b1-2)Man(a1-3)]Man(b1-4)GlcNAc(b1-4)GlcNAc
# Outline: as §1
# [73] = target: GlcNAc(b1-3)Fuc
# Outline: as §1
# [74] = target: GlcNAc(b1-3)Gal
# Outline: as §1
# [75] = target: GlcNAc(b1-3)Gal(b1-3)GalNAc
# Outline: as §1
binder,measurement,setting,value
B1,glycan array binding signal (z-score),[1],-0.605
same,glycan array binding signal (z-score),[2],0.048
same,glycan array binding signal (z-score),[3],-0.391
same,glycan array binding signal (z-score),[4],-0.142
same,glycan array binding signal (z-score),[5],0.069
same,glycan array binding signal (z-score),[6],0.483
same,glycan array binding signal (z-score),[7],-0.338
same,glycan array binding signal (z-score),[8],0.184
same,glycan array binding signal (z-score),[9],0.007
same,glycan array binding signal (z-score),[10],0.055
same,glycan array binding signal (z-score),[11],0.387
same,glycan array binding signal (z-score),[12],-0.613
same,glycan array binding signal (z-score),[13],-0.703
same,glycan array binding signal (z-score),[14],-0.11
same,glycan array binding signal (z-score),[15],0.033
same,glycan array binding signal (z-score),[16],-0.108
same,glycan array binding signal (z-score),[17],0.068
same,glycan array binding signal (z-score),[18],-0.714
same,glycan array binding signal (z-score),[19],2.34
same,glycan array binding signal (z-score),[20],-0.088
same,glycan array binding signal (z-score),[21],0.279
same,glycan array binding signal (z-score),[22],-0.437
same,glycan array binding signal (z-score),[23],-0.536
same,glycan array binding signal (z-score),[24],-0.52
same,glycan array binding signal (z-score),[25],-0.31
same,glycan array binding signal (z-score),[26],0.002
same,glycan array binding signal (z-score),[27],-0.061
same,glycan array binding signal (z-score),[28],0.212
same,glycan array binding signal (z-score),[29],0.463
same,glycan array binding signal (z-score),[30],-0.478
same,glycan array binding signal (z-score),[31],-0.661
same,glycan array binding signal (z-score),[32],-0.36
same,glycan array binding signal (z-score),[33],0.269
same,glycan array binding signal (z-score),[34],1.13
same,glycan array binding signal (z-score),[35],-0.45
same,glycan array binding signal (z-score),[36],0.029
same,glycan array binding signal (z-score),[37],-0.378
same,glycan array binding signal (z-score),[38],-0.545
same,glycan array binding signal (z-score),[39],-0.218
same,glycan array binding signal (z-score),[40],2.75
same,glycan array binding signal (z-score),[41],-0.454
same,glycan array binding signal (z-score),[42],0.411
same,glycan array binding signal (z-score),[43],-0.436
same,glycan array binding signal (z-score),[44],-0.173
same,glycan array binding signal (z-score),[45],-0.447
same,glycan array binding signal (z-score),[46],-0.125
same,glycan array binding signal (z-score),[47],0.262
same,glycan array binding signal (z-score),[48],-0.101
same,glycan array binding signal (z-score),[49],0.034
same,glycan array binding signal (z-score),[50],-0.376
same,glycan array binding signal (z-score),[51],-0.707
same,glycan array binding signal (z-score),[52],0.074
same,glycan array binding signal (z-score),[53],-0.209
same,glycan array binding signal (z-score),[54],0.368
same,glycan array binding signal (z-score),[55],-0.235
same,glycan array binding signal (z-score),[56],0.01
same,glycan array binding signal (z-score),[57],-0.271
same,glycan array binding signal (z-score),[58],-0.176
same,glycan array binding signal (z-score),[59],0.182
same,glycan array binding signal (z-score),[60],-0.482
same,glycan array binding signal (z-score),[61],-0.563
same,glycan array binding signal (z-score),[62],-0.332
same,glycan array binding signal (z-score),[63],0.034
same,glycan array binding signal (z-score),[64],-0.362
same,glycan array binding signal (z-score),[65],-0.709
same,glycan array binding signal (z-score),[66],-0.361
same,glycan array binding signal (z-score),[67],-0.608
same,glycan array binding signal (z-score),[68],-0.106
same,glycan array binding signal (z-score),[69],-0.831
same,glycan array binding signal (z-score),[70],0.484
same,glycan array binding signal (z-score),[71],-0.048
same,glycan array binding signal (z-score),[72],-0.381
same,glycan array binding signal (z-score),[73],0.038
same,glycan array binding signal (z-score),[74],-0.109
same,glycan array binding signal (z-score),[75],-0.149
